In PubChem BioAssay AID1240 (Sanford-Burnham Center for Chemical Genomics, 2008) one finds displacement data, which are given here for 69 compounds.

The structures appear in SMILES notation. In all, about 50,000 compounds went through this assay and about 800 (1.6%) showed an effect of 50% or more. The list shows a part of the results.

The test deals with Bcl-2-like protein 10 (Homo sapiens) (UniProt Q9HD36). Description: Phenotype converters, Bcl-B/TR3 peptide binding displacement, primary biochemical FP (AID 1240).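 Further: 0% = Bcl-B with tracer peptide and DMSO and 100% = tracer peptide lacking Bcl-B.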 The note with it: GST-Bcl-B / FITC-TR3 peptide fluorescence polarization; stronger effect = higher value; compound at 3.75 mg/L.
Chain of UniProt Q9HD36 (Q9HD36 whole entry, looked up): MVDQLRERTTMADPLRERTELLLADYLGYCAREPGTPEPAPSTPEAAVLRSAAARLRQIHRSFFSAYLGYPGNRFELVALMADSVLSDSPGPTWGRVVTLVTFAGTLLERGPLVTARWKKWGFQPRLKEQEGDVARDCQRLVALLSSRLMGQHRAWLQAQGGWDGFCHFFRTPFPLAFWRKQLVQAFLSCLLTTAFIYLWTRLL
On to `Cc1cc(Cl)ccc1OCC(=O)Nc1cccc2nsnc12`, for which the displacement was 2.3%.
Then `CC(C)(C)C(=O)CC(C)(O)c1ccc(Cl)cc1` (centres undefined), with 5.4%; and `O=C(CCc1ccccc1)Nc1cccc(Cl)c1`, with 9.2%; and `CN1C(=O)C(=Cc2cc(Cl)ccc2O)C(=O)N(C)C1=O`, with 2.9%.
For `Cc1ccc(C2/C(=C(\O)c3ccc(Cl)cc3)C(=O)C(=O)N2CCCn2ccnc2)cc1` (centres undefined) the value was -4.6%; for `COC(=O)c1ccc(CN2CCN(CCN3C(=O)c4cccc5cccc(c45)C3=O)CC2)cc1`, -18.2%.
Turning to `CC(CC(=O)Nc1ccc(Cl)cc1)c1ccccc1` (centres undefined), the displacement is 13.5%.
Then `CCOC(=O)C1=C(C)NC(=O)NC1c1cc(C)cs1` (centres undefined), with -3.9%.
For `O=C(c1cnn2c1NC(c1ccc3c(c1)OCO3)CC2C(F)(F)F)N1CCN(C(c2ccccc2)c2ccccc2)CC1` (centres undefined) the value was 6.4%.
Take `Oc1[nH]c2ccccc2c1N=Nc1cccc(C(F)(F)F)c1`: the displacement was determined as 5.1%.
For `Cn1ccnc1SCN1C(=O)c2ccccc2C1=O` the value was -0.8%; for `COc1cc(NC(=O)c2ccc3c(c2)OCCO3)ccc1NC(=O)c1ccco1`, 2.1%; for `CCC(Sc1n[nH]c(=O)[nH]c1=O)C(=O)OCc1ccccc1` (centres undefined), 1%.
For `C=CCN1C(=O)/C(=C\c2ccc(OS(=O)(=O)c3ccccc3[N+](=O)[O-])cc2)SC1=S` the value was -4.5%; for `Cc1ccc(Cn2c(/N=C/c3ccccc3O)nc3ccccc32)cc1`, -6.4%.
Then `O=C(CSc1nnc(-c2ccc(Br)cc2)o1)NCc1ccccc1`, with 13.3%; and `Cc1cc(C)cc(NC(=O)c2cc(-c3cccs3)nc3ccccc23)c1`, with -7.8%.
As to `CC(C(=O)N1C(C)CCCC1C)N1C(=O)c2ccccc2C1=O` (centres undefined), the displacement is 9.6%.
For `NS(=O)(=O)c1cccc(NC(=O)c2cccc(OCc3ccccc3)c2)c1` the value was 3.8%; for `CC(=O)c1cccc(NC(=O)CN(c2ccccc2)S(=O)(=O)c2ccccc2[N+](=O)[O-])c1`, 6.5%.
With `CCOCP(=O)(COCC)COCC`, the displacement was found to be 1.1%.
For `CC(C)(C)c1ccc(Cn2c(-c3nonc3N)nc3ccccc32)cc1` the value was 1.6%; for `CCOC(=O)c1c(NC(=O)c2ccc(Cl)c(Cl)c2)sc(C(=O)Nc2ccccc2OC)c1C`, -6%; for `O=C(Nc1cc(Cl)ccc1Cl)C1CC(=O)N(C2CCCCC2)C1` (centres undefined), -10.9%.
For `Cc1ccc(-c2cc(C(=O)N3CCCCCC3)c3ccccc3n2)o1` the value was 5.4%; for `COc1ccc(C2CC(=O)C3=C(C2)Nc2ccccc2NC3c2ccc(NC(C)=O)cc2)cc1OC` (centres undefined), -4.9%.
As to `CCN1C(=O)/C(=C\c2cc(Cl)ccc2OCCOc2cccc(OC)c2)SC1=S`, the displacement was -8.1%.
For `COc1ccc(C2OCC3C(C)C=C(C)C2C3C)cc1` (centres undefined) the value was 5.3%; for `CCCCCOC(=O)C1=C(C)NC(=O)NC1c1ccccc1Cl` (centres undefined), 3.9%.
Then `CCCCOc1ccc(C(=O)O/N=C2\CCOc3cc(OC)ccc32)cc1`, with -4%; and `COc1ccc(CCNC(=O)C(=O)Nc2ccc(F)cc2)cc1OC`, with -8.9%.
Then `Nc1nc(-c2ccccc2)c(-c2ccccc2)n1/N=C/c1ccccc1`, with -0.3%; and `Cc1nn(C(c2ccccc2)C(O)(c2ccccc2)c2ccccc2)c(C)c1Br` (centres undefined), with -7%.
Turning to `Cc1ccc(S(=O)(=O)/N=C(/NC(=S)N2CCOCC2)c2ccccc2)cc1`, the displacement was -5.4%.
In the case of `COc1ccc(N(CC(=O)Nc2cc(C)cc(C)c2)S(C)(=O)=O)cc1Cl`, the displacement was -0.1%.
Then `COc1ccc(S(=O)(=O)N2CCN(Cc3ccc4c(c3)OCO4)CC2)cc1`, with -9.4%; and `Clc1ccccc1CN1CCN(C2CCN(Cc3ccccc3)CC2)CC1`, with -19.8%; and `CCOC(=O)N1CCN(C(c2ccccc2)c2ccccc2)CC1`, with 9.4%.
For `CC1(C)CC(=O)C(/C=N/C(N)=O)=C(O)C1` the value was 2.4%; for `CCc1c(C)nc(N)nc1N1CCCC1`, 13.1%; for `COc1ccccc1C/C(N)=N/OC(=O)c1ccc(Br)cc1`, -0.6%.
For `N/C(=N\OC(=O)c1cccc(Br)c1)c1ccncc1` the value was 9.4%; for `O=C(CSc1n[nH]c(=O)[nH]c1=O)N/N=C/c1ccccc1`, -8.9%.
On to `CN(CCS(=O)(=O)OCC(F)(F)F)c1ccc(C=O)cc1`, for which the displacement is 11.9%.
For `COc1ccccc1CN/C(C)=C(\C#N)C(N)=O` the value was -0.6%; for `Cc1nn(S(=O)(=O)c2ccccc2[N+](=O)[O-])c(C)c1Sc1ccccc1`, -9.1%; for `O=C(c1cccnc1)N1N=C(C(F)(F)F)CC1(O)c1ccc(Cl)cc1` (centres undefined), 11.5%.
For `Fc1ccccc1OCCSc1nc2ccc(Br)cc2[nH]1` the value was -2.9%.
As to `CCOc1cc(/C=N/n2cnnc2)cc(Cl)c1O`, the displacement is -17.7%.
As to `CCc1ccc(C(=O)CC2(O)C(=O)Nc3ccc(Br)cc32)cc1` (centres undefined), the displacement was found to be 2.3%.
For `COC(=O)Nc1c(-c2ccccc2)nc2ccc(Cl)cn12` the value was 9.7%; for `O=C(NC1CCCCC1)c1cccc(S(=O)(=O)N2CCOCC2)c1`, 6.5%.
Then `O=C(NC(NC(=S)Nc1c(Cl)cccc1Cl)C(Cl)(Cl)Cl)c1cccc([N+](=O)[O-])c1` (centres undefined), with -5.8%.
Consider `COc1ccc(NC(=O)CN(c2ccc(Br)cc2)S(C)(=O)=O)cc1`, for which the displacement is 4.4%.
For `O=C1/C(=C\c2ccc(C(F)(F)F)cc2)SC(=S)N1c1ccccc1` the value was 13.6%; for `CCOc1ccc(-c2nn(-c3ccccc3)cc2C2C(C(=O)OC)=C(C)NC(C)=C2C(=O)OC)cc1[N+](=O)[O-]`, 8.8%; for `Cc1ccc(O)c(NC(=O)c2ccc(N3C(=O)c4ccc([N+](=O)[O-])cc4C3=O)cc2)c1`, -0.6%.
For `COC(=O)COc1cc(Br)c(/C=C2\C(=O)NC(=O)N(c3cc(C)cc(C)c3)C2=O)cc1OC` the value was 0%.
For `CCCCOc1ccc(C2NC(=O)NC(C)=C2C(=O)OCC)cc1` (centres undefined) the value was 14.2%.
Regarding `COc1ccccc1OCCNc1cc(Cl)ccc1[N+](=O)[O-]`, the displacement was 14.5%.
As to `COc1cccc(OC)c1C(=O)Nc1cccc(C(=O)Nc2ccccc2C(=O)O)c1`, the displacement was -7.8%.
Then `O=C(N/N=C/C=C/c1ccccc1)c1cc(-c2ccccc2)n[nH]1`, with 0.7%; and `CCOc1cc(/C=C2\SC(=S)NC2=O)ccc1OCc1ccccc1`, with 5.4%.
Then `Cc1cc(/C=C2/NC(=O)NC2=O)c(C)n1-c1cccc(Cl)c1`, with 10%; and `CCOC(=O)C1=C(C)N=c2s/c(=C\c3ccc(C(=O)O)cc3)c(=O)n2C1c1ccc(OC)cc1` (centres undefined), with 4.4%.
Then `O=C1CC(NC2CCCCC2)C(=O)N1c1ccc(Br)cc1` (centres undefined), with -0.5%; and `Ic1ccc(OCCCCN2CCOCC2)cc1`, with 8.5%.
For the compound `O=c1/c(=C/c2ccc(OCCOc3ccc(Br)cc3)cc2)sc2nc3ccccc3n12`, the displacement was -5.4%.
For `CCc1ccccc1OCCCN(CC)CC` the value was 8.2%.
